This is an account of results in patent US20130178523A1, “ANTI-CANCER COMPOSITIONS AND METHODS” (THE PENN STATE RESEARCH FOUNDATION, priority 2007, published 2013).

The test system of this test is Akt signaling pathway. The experiment in a line: Western blot of Akt signaling pathway in cultured melanoma cells (FIG. 9). The note with it: 2.5-15 μM, 24 hours; immunoblot FIG. 9.

With `[Se]=C=NCCCCc1ccccc1` [ISC-4, Phenylbutyl Isoselenocyanate], the “phosphorylated (active) Akt (S473) and downstream PRAS40 (T246)” value is on record as “dose dependent decreases”.
As for `[Se]=C=NCCCCCCc1ccccc1` [ISC-6, Phenylhexyl Isoselenocyanate], the entry is “dose dependent decreases”.
